What follows are molecules tested against CtermHisTag-mEGFR Triple Mutant (R797S, L858R, T790M) (Homo sapiens, UniProt P00533, C797S/L858R/T790M) (assay: TR-FRET probe displacement, EGFR triple mutant). Settings: 1.25 nM EGFR, 100 nM probe, 30 mins room temperature.

Row | IC50 | Compound
1 | 20 to 100 nM | C#Cc1cc(=O)n2c3nc(ncc13)Nc1ccc(N3CCN(C)CC3)c(c1)N(C)C(=O)CCC2 [Example 225, 1^5-Ethynyl-4-methyl-3^4-(4-methylpiperazin-1-yl)-1^7,1^8-dihydro-2,4-diaza-1(2,8)-pyrido[2,3-d]pyrimidina-3(1,3)-benzenacyclooctaphane-1^7,5-dione]
2 | 100 to 1000 nM | C#Cc1cc(=O)n2c3nc(ncc13)Nc1ccc(N3CCN(C)CC3)c(c1)CN(C)CCC2 [Example 226, 1^5-Ethynyl-5-methyl-3^4-(4-methylpiperazin-1-yl)-1^7,1^8-dihydro-2,5-diaza-1(2,8)-pyrido[2,3-d]pyrimidina-3(1,3)-benzenacyclooctaphan-1^7-one]
3 | < 20 nM | C#Cc1cc(=O)n2c3nc(ncc13)Nc1ccc(N3CCN(C)CC3)c(c1)OCCCCCC2 [Example 230, 1^5-ethynyl-3^4-(4-methylpiperazin-1-yl)-1^7,1^8-dihydro-4-oxa-2-aza-1(2,8)-pyrido[2,3-d]pyrimidina-3(1,3)-benzenacyclodecaphan-1^7-one]
4 | < 20 nM | C#Cc1cc(=O)n2c3nc(ncc13)Nc1ccc(N3CCN(C)CC3)c(c1)OCCOCC2 [Example 232, 1^5-Ethynyl-3^4-(4-Methylpiperazin-1-yl)-1^7,1^8-dihydro-4,7-dioxa-2-aza-1(2,8)-pyrido[2,3-d]pyrimidina-3(1,3)-benzenacyclononaphan-1^7-one]
5 | 20 to 100 nM | C#Cc1cc(=O)n2c3nc(ncc13)Nc1ccc(N3CCN(C)CC3)c(c1)CNC(=O)CCC2 [Example 237, 1^5-Ethynyl-3^4-(4-methylpiperazin-1-yl)-1^7,1^8-dihydro-2,5-diaza-1(2,8)-pyrido[2,3-d]pyrimidina-3(1,3)-benzenacyclononaphane-1^7,6-dione]
6 | < 20 nM | C#Cc1cc(=O)n2c3nc(ncc13)Nc1ccc(N3CCN(C)CC3)c(c1)CCOCC2 [Example 240, 1^5-Ethynyl-3^4-(4-methylpiperazin-1-yl)-1^7,1^8-dihydro-6-oxa-2-aza-1(2,8)-pyrido[2,3-d]pyrimidina-3(1,3)-benzenacyclooctaphan-1^7-one]
7 | < 20 nM | C#Cc1cc(=O)n2c3nc(ncc13)Nc1ccc(N3CCN(CCOC)CC3)c(c1)OCCCC2 [Example 241, 1^5-Ethynyl-3^4-(4-(2-methoxyethyl)piperazin-1-yl)-1^7,1^8-dihydro-4-oxa-2-aza-1(2,8)-pyrido[2,3-d]pyrimidina-3(1,3)-benzenacyclooctaphan-1^7-one]

More lines, now with the values behind:

Row | Compound | IC50
8 | C#Cc1cc(=O)n(C)c2nc(Nc3ccc(N4CCN(C)CC4)c(NC(=O)NC4CCCC4)c3)ncc12 [Example 219, 3-Cyclopentyl-1-[5-({5-ethynyl-8-methyl-7-oxopyrido[2,3-d]pyrimidin-2-yl}amino)-2-(4-methylpiperazin-1-yl)phenyl]urea] | 20 to 100 nM
9 | C#Cc1cc(=O)n(C)c2nc(Nc3ccc(N4CCN(C)CC4)c(OCCc4ccnn4C)c3)ncc12 [Example 220, 5-Ethynyl-8-methyl-2-((3-(2-(1-methyl-1H-pyrazol-5-yl)ethoxy)-4-(4-methylpiperazin-1-yl)phenyl)amino)pyrido[2,3-d]pyrimidin-7(8H)-one] | < 20 nM
10 | C#Cc1cc(=O)n(C)c2nc(Nc3ccc(N4CCN(C)CC4)c(C(=O)NCC4CCCC4)c3)ncc12 [Example 221, N-(Cyclopentylmethyl)-5-({5-ethynyl-8-methyl-7-oxopyrido[2,3-d]pyrimidin-2-yl}amino)-2-(4-methylpiperazin-1-yl)benzamide] | 20 to 100 nM
11 | C#Cc1cc(=O)n2c3nc(ncc13)Nc1ccc(N3CCN(C)CC3)c(c1)NC(=O)CCC2 [Example 222, 1^5-ethynyl-3^4-(4-methylpiperazin-1-yl)-1^7,1^8-dihydro-2,4-diaza-1(2,8)-pyrido[2,3-d]pyrimidina-3(1,3)-benzenacyclooctaphane-1^7,5-dione] | < 20 nM
12 | C#Cc1cc(=O)n2c3nc(ncc13)Nc1ccc(N3CCN(C)CC3)c(c1)CN(C)C(=O)CC2 [Example 223, 1^5-Ethynyl-5-methyl-3^4-(4-methylpiperazin-1-yl)-1^7,1^8-dihydro-2,5-diaza-1(2,8)-pyrido[2,3-d]pyrimidina-3(1,3)-benzenacyclooctaphane-1^7,6-dione] | < 20 nM
13 | C#Cc1cc(=O)n2c3nc(ncc13)Nc1ccc(N3CCN(C)CC3)c(c1)C(=O)NCCC2 [Example 224, 1^5-ethynyl-3^4-(4-methylpiperazin-1-yl)-1^7,1^8-dihydro-2,5-diaza-1(2,8)-pyrido[2,3-d]pyrimidina-3(1,3)-benzenacyclooctaphane-1^7,4-dione] | 1000 to 50000 nM
14 | C#Cc1cc(=O)n2c3nc(ncc13)Nc1ccc(N3CCN(C)CC3)c(c1)CCNC(=O)C2 [Example 227, 1^5-Ethynyl-3^4-(4-Methylpiperazin-1-yl)-1^7,1^8-dihydro-2,6-diaza-1(2,8)-pyrido[2,3-d]pyrimidina-3(1,3)-benzenacyclooctaphane-1^7,7-dione] | 100 to 1000 nM
15 | C#Cc1cc(=O)n2c3nc(ncc13)Nc1ccc(N3CCN(C)CC3)c(c1)OCCCCC2C (centres unmarked) [Example 228, 1^5-Ethynyl-9-methyl-3^4-(4-methylpiperazin-1-yl)-1^7,1^8-dihydro-4-oxa-2-aza-1(2,8)-pyrido[2,3-d]pyrimidina-3(1,3)-benzenacyclononaphan-17-one] | 20 to 100 nM
16 | C#Cc1c(C)c(=O)n2c3nc(ncc13)Nc1ccc(N3CCN(C)CC3)c(c1)OCCCCC2 [Example 229, 1^5-Ethynyl-1^6-Methyl-3^4-(4-methylpiperazin-1-yl)-1^7,1^8-dihydro-4-oxa-2-aza-1(2,8)-pyrido[2,3-d]pyrimidina-3(1,3)-benzenacyclononaphan-1^7-one] | 20 to 100 nM
17 | C#Cc1cc(=O)n2c3nc(ncc13)Nc1ccc(N3CCN(C)CC3)c(c1)COCCCC2 [Example 231, 1^5-Ethynyl-3^4-(4-methylpiperazin-1-yl)-1^7,1^8-dihydro-5-oxa-2-aza-1(2,8)-pyrido[2,3-d]pyrimidina-3(1,3)-benzenacyclononaphan-1^7-one] | 20 to 100 nM
18 | C#Cc1cc(=O)n2c3nc(ncc13)Nc1ccc(N3CCN(C)CC3)c(c1)OC[C@@H]1CC[C@@H](C1)C2 [Example 233, (5^1S,5^3R)-3^5-Ethynyl-1^4-(4-methylpiperazin-1-yl)-3^7,3^8-dihydro-7-oxa-2-aza-3(2,8)-pyrido[2,3-d]pyrimidina-1(1,3)-benzena-5(1,3)-cyclopentanacycloheptaphan-3^7-one] | < 20 nM
19 | C#Cc1cc(=O)n2c3nc(ncc13)Nc1ccc(N3CCN(C)CC3)c(c1)S(=O)(=O)NCCC2 [Example 234, 1^5-Ethynyl-3^4-(4-methylpiperazin-1-yl)-1^7,1^8-dihydro-4-thia-2,5-diaza-1(2,8)-pyrido[2,3-d]pyrimidina-3(1,3)-benzenacyclooctaphan-1^7-one 4,4-dioxide] | 20 to 100 nM
20 | C#Cc1cc(=O)n2c3nc(ncc13)Nc1ccc(N3CCN(C(C)C)CC3)c(c1)NC(=O)CCC2 [Example 235, 1^5-Ethynyl-3^4-(4-isopropylpiperazin-1-yl)-1^7,1^8-dihydro-2,4-diaza-1(2,8)-pyrido[2,3-d]pyrimidina-3(1,3)-benzenacyclooctaphane-1^7,5-dione] | < 20 nM
21 | C#Cc1cc(=O)n2c3nc(ncc13)Nc1ccc(N3CCN(CCOC)CC3)c(c1)NC(=O)CCC2 [Example 236, 1^5-Ethynyl-3^4-(4-(2-methoxyethyl)piperazin-1-yl)-1^7,1^8-dihydro-2,4-diaza-1(2,8)-pyrido[2,3-d]pyrimidina-3(1,3)-benzenacyclooctaphane-1^7,5-dione] | < 20 nM
22 | C#Cc1cc(=O)n2c3nc(ncc13)Nc1ccc(N3CCCN(C)CC3)c(c1)NC(=O)CCC2 [Example 238, 1^5-Ethynyl-3^4-(4-methyl-1,4-diazepan-1-yl)-1^7,1^8-dihydro-2,4-diaza-1(2,8)-pyrido[2,3-d]pyrimidina-3(1,3)-benzenacyclooctaphane-1^7,5-dione] | < 20 nM
23 | C#Cc1cc(=O)n2c3nc(ncc13)Nc1ccc(N3CCN(C)CC3)c(c1)OCCC[C@H]2C [Example 239, (R)-1^5-ethynyl-8-methyl-3^4-(4-methylpiperazin-1-yl)-1^7,1^8-dihydro-4-oxa-2-aza-1(2,8)-pyrido[2,3-d]pyrimidina-3(1,3)-benzenacyclooctaphan-1^7-one] | < 20 nM

— patent US20260137703A1, “2-AMINO-PYRIDO[2,3-D]PYRIMIDIN-7(8H)-ONE AND 7-AMINO-1-PYRIMIDO[4,5-D]PYRIMIDIN-2(1 H)-ONE DERIVATIVES AS EGFR INHIBITORS FOR THE TREATMENT OF CANCER” (Cancer Research Technology Limited, priority 2022, published 2026)
